± gives the standard deviation of the averaged measurements. The full ranking holds about 33,000 sequences; the median of “E-score (dimensionless, -0.5 to 0.5)” is about -0.049, and the highest 2% start at about 0.37. The list shows a part of the results.

The assay concerns T1, PmTbr T-box DNA-binding domain (GST fusion).
T1 sequence: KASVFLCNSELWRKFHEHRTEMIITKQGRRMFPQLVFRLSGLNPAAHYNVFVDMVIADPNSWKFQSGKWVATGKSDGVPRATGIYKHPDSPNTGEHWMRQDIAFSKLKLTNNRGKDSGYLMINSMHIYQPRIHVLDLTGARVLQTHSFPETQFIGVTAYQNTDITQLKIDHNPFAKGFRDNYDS
The assay can be described thus: PBM E-score of 8-mer (E-score (dimensionless, -0.5 to 0.5)); Tbr is Tbrain of the sea star Patiria miniata (Pm) or the sea urchin Strongylocentrotus purpuratus (Sp); higher = stronger binding preference; most listed sequences are background and not binding sites. The conditions noted are these: the construct has about 5 more residues each side. A digest of the protocol: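 Primer extension turned Universal Agilent oligonucleotide arrays double-stranded. They were incubated with 200 nM protein in PBS (pH 7.5); the protein was a GST-fused Tbr T-box DNA-binding domain expressed in BL21 E. coli at 20 °C and purified on glutathione. Every ungapped 8-mer was scored from the scanned, quantified probe intensities, and the Universal PBM Analysis Suite gave each an enrichment E-score averaged over duplicate arrays.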
Take AAAACAGT: the “PBM E-score of 8-mer” value is -0.172 ± 0.018.
In the case of ACAGCCCG, the “PBM E-score of 8-mer” value was found to be 0.0265 ± 0.039.
ATAGTCTC: the “PBM E-score of 8-mer” value was -0.045 ± 0.035.
As to ACGCCTTG, the “PBM E-score of 8-mer” value is 0.283 ± 0.03.
Regarding AGTCTGAA, the “PBM E-score of 8-mer” value is -0.179 ± 0.0018.
Regarding AGAGAGAA, the “PBM E-score of 8-mer” value is -0.0727 ± 0.0041.
In the case of AAAAGGCC, the “PBM E-score of 8-mer” value was -0.138 ± 0.02.
As to CTGATGGA, the “PBM E-score of 8-mer” value was -0.137 ± 0.059.
The same measure for CCGGCTGC: -0.125 ± 0.1.
Take CAATAAAA: the “PBM E-score of 8-mer” value was -0.0746 ± 0.04.
The value for AATCTCTG was -0.131 ± 0.068; that for AGAGGAAA was 0.0946 ± 0.058; that for CTGTAGAA was -0.127 ± 0.037.
For GAGTCAGA, the “PBM E-score of 8-mer” value is -0.238 ± 0.018.
As to CCAATTAA, the “PBM E-score of 8-mer” value stood at 0.00263 ± 0.015.
Turning to AAAAACGG, the “PBM E-score of 8-mer” value was -0.0215 ± 0.026.
As for AGTGTTAA, the “PBM E-score of 8-mer” value is 0.433 ± 0.017.
The same measure for AACTCCGA: -0.0873 ± 0.035; for ACTAACAG: 0.216 ± 0.045; for ACACAGAG: -0.0201 ± 0.079.
The same measure for CCGTTATA: -0.0748 ± 0.038.
As for ATGCATTA, the “PBM E-score of 8-mer” value was -0.11 ± 0.13.
GATAGCAA: the “PBM E-score of 8-mer” value is 0.202 ± 0.052.
With AGGACAAT, the “PBM E-score of 8-mer” value was -0.237 ± 0.13.
Take ACTGAGCC: the “PBM E-score of 8-mer” value was -0.306 ± 0.061.
For the sequence CAGAGAGA, the “PBM E-score of 8-mer” value is -0.0489 ± 0.017.
On to AAATCCAA, for which the “PBM E-score of 8-mer” value was -0.0951 ± 0.03.
With ATAACTGG, the “PBM E-score of 8-mer” value was -0.194 ± 0.048.
The value for GAAGGAGA was -0.276 ± 0.065.
Turning to CTAGCAAG, the “PBM E-score of 8-mer” value was 0.0488 ± 0.014.
In the case of GGAGAACA, the “PBM E-score of 8-mer” value is -0.137 ± 0.0019.
In the case of CAAACCTG, the “PBM E-score of 8-mer” value was found to be 0.0391 ± 0.011.
With GGTAAAAC, the “PBM E-score of 8-mer” value was -0.122 ± 0.069.
The same measure for ACAATCCG: -0.0812 ± 0.0072.
On to ATGGAGGA, for which the “PBM E-score of 8-mer” value is -0.217 ± 0.015.
On to CTGAGCGA, for which the “PBM E-score of 8-mer” value was -0.0671 ± 0.078.
On to AGGGCGCA, for which the “PBM E-score of 8-mer” value was -0.11 ± 0.083.
Turning to GAGGCCTA, the “PBM E-score of 8-mer” value is -0.176 ± 0.014.
CACGTATC: the “PBM E-score of 8-mer” value was found to be 0.107 ± 0.0078.
For the sequence CAGGGTCA, the “PBM E-score of 8-mer” value is -0.135 ± 0.02.
The same measure for CAAGGTGG: 0.323 ± 0.03; for CACAACGA: 0.0942 ± 0.03; for CCTTGTGA: 0.0952 ± 0.026.
With CGCTGCCC, the “PBM E-score of 8-mer” value came to 0.0291 ± 0.018.
Take CGGTTTCA: the “PBM E-score of 8-mer” value was found to be 0.163 ± 0.071.
On to AGAAATTC, for which the “PBM E-score of 8-mer” value was -0.0651 ± 0.031.
On to AGCTAAGG, for which the “PBM E-score of 8-mer” value was -0.172 ± 0.11.
The same measure for ACCACCAC: 0.0224 ± 0.049.
On to AAATCGCA, for which the “PBM E-score of 8-mer” value is 0.297 ± 0.0062.
In the case of CAGTGCCG, the “PBM E-score of 8-mer” value is -0.0615 ± 0.022.
With GCAGATTA, the “PBM E-score of 8-mer” value is -0.0303 ± 0.022.
Turning to CGGGGTAG, the “PBM E-score of 8-mer” value was -0.189 ± 0.11.
Turning to AATTATTC, the “PBM E-score of 8-mer” value is -0.119 ± 0.077.
AAGCTGCA: the “PBM E-score of 8-mer” value came to 0.137 ± 0.011.
The value for AAGCCTCT was -0.0496 ± 0.045; that for AAGGTGAG was 0.452 ± 0.0046; that for CAAATTGA was 0.0471 ± 0.01.
Consider TACGAACA, for which the “PBM E-score of 8-mer” value is -0.0354 ± 0.071.
As for CAACCTCA, the “PBM E-score of 8-mer” value was found to be 0.133 ± 0.049.
For CTACTGCC, the “PBM E-score of 8-mer” value is -0.05 ± 0.057.
On to GCCCTTGA, for which the “PBM E-score of 8-mer” value was -0.276 ± 0.04.
Take CGGAAGAA: the “PBM E-score of 8-mer” value is -0.112 ± 0.026.
As for CCCGCAAC, the “PBM E-score of 8-mer” value was -0.0891 ± 0.086.
Turning to TAGATGAA, the “PBM E-score of 8-mer” value was -0.174 ± 0.066.
On to AAAAACTG, for which the “PBM E-score of 8-mer” value was -0.118 ± 0.086.
Regarding CGGCAGGA, the “PBM E-score of 8-mer” value was -0.0783 ± 0.02.
The same measure for GAGGCTAA: -0.0691 ± 0.029; for ACGCTAGT: 0.036 ± 0.023.
Regarding CGGTGGCC, the “PBM E-score of 8-mer” value is -0.258 ± 0.033.
Take GCCACTTA: the “PBM E-score of 8-mer” value was determined as 0.232 ± 0.021.
For the sequence TACGACTA, the “PBM E-score of 8-mer” value was -0.144 ± 0.023.
With ATCTATTG, the “PBM E-score of 8-mer” value was -0.176 ± 0.092.
As to GAGGTGCC, the “PBM E-score of 8-mer” value was determined as 0.409 ± 0.03.
Consider GGGAATGA, for which the “PBM E-score of 8-mer” value was -0.029 ± 0.011.
The value for AGACGCGG was -0.22 ± 0.049; that for CCCCACTA was 0.0367 ± 0.057; that for CAGCATAC was -0.00656 ± 0.045.
Regarding CAGAGCTC, the “PBM E-score of 8-mer” value was -0.302 ± 0.05.
As for GCGCGACA, the “PBM E-score of 8-mer” value came to 0.36 ± 0.023.
With GCACCAAC, the “PBM E-score of 8-mer” value was found to be 0.186 ± 0.014.
GAGTTACC: the “PBM E-score of 8-mer” value is 0.122 ± 0.013.
The value for ACGGTTCA was 0.0139 ± 0.058; that for AGGCACAA was -0.122 ± 0.011; that for AGAGATCT was -0.0691 ± 0.051.
As to GAACCGTC, the “PBM E-score of 8-mer” value was -0.07 ± 0.048.
ACGGGCTC: the “PBM E-score of 8-mer” value is -0.099 ± 0.03.

For the origin of these results see the supplement of paper PMC4166925.
